Some of the results follow. These are noisy estimates, calculated here from bound and input reads.

The target in this assay is T1, Pho4 (S. cerevisiae) (UniProt P07270).
T1 sequence: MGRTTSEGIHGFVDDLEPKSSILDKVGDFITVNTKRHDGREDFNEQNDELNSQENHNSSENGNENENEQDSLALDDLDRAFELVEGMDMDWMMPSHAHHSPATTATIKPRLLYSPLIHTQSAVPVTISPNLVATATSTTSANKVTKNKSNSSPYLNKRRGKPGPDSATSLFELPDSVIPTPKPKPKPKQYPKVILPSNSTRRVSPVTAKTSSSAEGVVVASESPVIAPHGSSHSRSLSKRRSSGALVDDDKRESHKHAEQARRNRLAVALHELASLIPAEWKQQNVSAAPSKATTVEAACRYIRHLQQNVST
As to the kind of experiment: relative binding free energy (BET-seq); higher = weaker binding. The following applies: reference: library average.
With ATTATCACGTGAGGGC, the “relative binding free energy” value was found to be 0.33 kcal/mol.

As to GTGATCACGTGAGTGA, the “relative binding free energy” value was 0.28 kcal/mol.

For TGAGTCACGTGTATGC, the “relative binding free energy” value is 0.04 kcal/mol.

In the case of GTGGCCACGTGGTCTG, the “relative binding free energy” value is -0.16 kcal/mol.

Regarding ATGGACACGTGATGCG, the “relative binding free energy” value came out at 0 kcal/mol.

In the case of GTTGGCACGTGTAAGC, the “relative binding free energy” value came out at 0.2 kcal/mol.

On to CTGGACACGTGTTTGA, for which the “relative binding free energy” value came out at 0 kcal/mol.

In the case of GGGTACACGTGGAAAT, the “relative binding free energy” value was 0.24 kcal/mol.

For the sequence TATGTCACGTGTTTAG, the “relative binding free energy” value came to 0.13 kcal/mol.

For the sequence GTTCTCACGTGGTTTC, the “relative binding free energy” value was determined as 0.51 kcal/mol.

Consider AGAGTCACGTGTGTGT, for which the “relative binding free energy” value was 0.06 kcal/mol.

As to TGACTCACGTGGTTGT, the “relative binding free energy” value is 0.06 kcal/mol.

Regarding ATTAGCACGTGGTTTT, the “relative binding free energy” value was -0.07 kcal/mol.

As to GGGATCACGTGTTATG, the “relative binding free energy” value worked out at 0.23 kcal/mol.

With GCGCACACGTGGGTTG, the “relative binding free energy” value is 0.03 kcal/mol.

TCGGACACGTGAGTTA: the “relative binding free energy” value was found to be 0.27 kcal/mol.

Regarding CTATTCACGTGGAAGG, the “relative binding free energy” value came to 0.26 kcal/mol.

On to TGAAGCACGTGGGGTA, for which the “relative binding free energy” value is -0.18 kcal/mol.

Take TGTTCCACGTGAGTCA: the “relative binding free energy” value was 0.39 kcal/mol.

Consider AGGTTCACGTGATTAA, for which the “relative binding free energy” value was 0.32 kcal/mol.

Take CTCGACACGTGTGGTG: the “relative binding free energy” value is -0.02 kcal/mol.

For CAATGCACGTGTTTTT, the “relative binding free energy” value was -0.01 kcal/mol.

As to GGAAACACGTGGTCTG, the “relative binding free energy” value stood at 0.22 kcal/mol.

For AGTATCACGTGTTCAT, the “relative binding free energy” value is -0.01 kcal/mol.

For GTGTTCACGTGTCTAG, the “relative binding free energy” value came to 0.2 kcal/mol.

Consider CTTGACACGTGGGCGT, for which the “relative binding free energy” value was -0.22 kcal/mol.

For the sequence TAAGACACGTGGGGCT, the “relative binding free energy” value was -0.23 kcal/mol.

Consider AGTGTCACGTGCTGGT, for which the “relative binding free energy” value is -0.03 kcal/mol.

As for GTGATCACGTGTTGCA, the “relative binding free energy” value came to 0.05 kcal/mol.

As to GTGATCACGTGATTAG, the “relative binding free energy” value is 0.38 kcal/mol.

For the sequence GGGCCCACGTGGGTTT, the “relative binding free energy” value was -0.18 kcal/mol.

For TACTACACGTGGGTGG, the “relative binding free energy” value was -0.07 kcal/mol.

In the case of TGCGGCACGTGGTTGC, the “relative binding free energy” value was -0.09 kcal/mol.

In the case of AGAGTCACGTGATTCG, the “relative binding free energy” value came out at 0.28 kcal/mol.

Consider GGTATCACGTGTTAGT, for which the “relative binding free energy” value is 0.11 kcal/mol.

With TTCGTCACGTGAGATG, the “relative binding free energy” value came to 0.34 kcal/mol.

Regarding CAGGTCACGTGGGGCA, the “relative binding free energy” value is -0.09 kcal/mol.

AAGGTCACGTGCGGGC: the “relative binding free energy” value amounted to 0.01 kcal/mol.

For ATGAGCACGTGTTTTT, the “relative binding free energy” value was -0.06 kcal/mol.

On to CGGGGCACGTGAGTAT, for which the “relative binding free energy” value was 0.05 kcal/mol.

For the sequence TTGAACACGTGGTTTT, the “relative binding free energy” value stood at 0.02 kcal/mol.

For the sequence TGTTTCACGTGTGTGG, the “relative binding free energy” value was 0.32 kcal/mol.

Regarding TGAGACACGTGTGCTT, the “relative binding free energy” value is 0.15 kcal/mol.

On to ATTACCACGTGTGGGG, for which the “relative binding free energy” value was 0 kcal/mol.

For the sequence TTGTACACGTGTTTGG, the “relative binding free energy” value turned out to be 0.04 kcal/mol.

Consider AATGTCACGTGTATCT, for which the “relative binding free energy” value was found to be 0.18 kcal/mol.

CTAGGCACGTGGTCGT: the “relative binding free energy” value is -0.28 kcal/mol.

Turning to TAGTTCACGTGCGGGT, the “relative binding free energy” value was found to be 0.22 kcal/mol.

As to TGGATCACGTGTTCAT, the “relative binding free energy” value came to 0.12 kcal/mol.

Regarding TGGGTCACGTGACTGG, the “relative binding free energy” value came out at 0.23 kcal/mol.

Regarding ATAAGCACGTGTTTTC, the “relative binding free energy” value was -0.05 kcal/mol.

For AGGGACACGTGTAATT, the “relative binding free energy” value was determined as 0.18 kcal/mol.

For the sequence TTTGGCACGTGGAGCT, the “relative binding free energy” value is -0.1 kcal/mol.

Regarding TAAGTCACGTGGAAAG, the “relative binding free energy” value came out at 0.25 kcal/mol.

Turning to AGTAGCACGTGCGTTA, the “relative binding free energy” value is -0.04 kcal/mol.

For AGTATCACGTGCTTTG, the “relative binding free energy” value was -0.04 kcal/mol.

In the case of CGAGACACGTGGGGTT, the “relative binding free energy” value was -0.11 kcal/mol.

The values above are taken from the BET-seq Pho4 binding data (Le et al. 2018).
